{"source": "patent US20080226682A1", "about": "“Immunoactive Compositions for Improved Oral Delivery of Vaccines and Therapeutic Agents” (PerOs Systems Technologies, Inc., priority 2007, published 2008)", "key": {"avian immune cells [1]": {"test_system": "avian immune cells", "conditions": "purified isoflavone"}, "avian immune cells [2]": {"test_system": "avian immune cells", "assay": "Leukocyte mitogenic response (BrdU-based ELISA, stimulation index)", "format": "cell-based", "conditions": "purified lectin at mitogen concentration (5-40 μg/mL), day 4"}}}
{"molecule": "O=c1c(-c2ccc(O)cc2)coc2cc(O)ccc12", "note": "[daidzein]", "values": [{"measurement": "Cytokine Secretion Profile (determined by RT-PCR)", "setting": "avian immune cells [1]", "value": "None"}]}
{"molecule": "COc1ccc(-c2coc3cc(O)cc(O)c3c2=O)cc1", "note": "[biochanin A, 5,7-dihydroxy 4′-methoxy isoflavone]", "values": [{"measurement": "Cytokine Secretion Profile (determined by RT-PCR)", "setting": "avian immune cells [1]", "value": "IL-4"}]}
{"molecule": "SBA: Soybean (Glycine max) Lectin", "values": [{"measurement": "Immunomodulatory effect (stimulation index class)", "setting": "avian immune cells [2]", "value": "+++ (≧10 is assigned a value of +++ (strong mitogen))"}]}
{"molecule": "O=c1c(-c2ccc(O)cc2)coc2cc(O)cc(O)c12", "note": "[genistein, 4′5,7-trihydroxyisoflavone]", "values": [{"measurement": "Cytokine Secretion Profile (determined by RT-PCR)", "setting": "avian immune cells [1]", "value": "IFN-gamma"}]}
{"molecule": "PSA: small pea (Pisum sativum) lectin (protein, UniProt P02867 31-217; P02867 218-275, looked up) Lectin beta chain: TETTSFLITKFSPDQQNLIFQGDGYTTKEKLTLTKAVKNTVGRALYSSPIHIWDRETGNVANFVTSFTFVINAPNSYNVADGFTFFIAPVDTKPQTGGGYLGVFNSAEYDKTTQTVAVEFDTFYNAAWDPSNRDRHIGIDVNSIKSVNTKSWKLQNGEEANVVIAFNAATNVLTVSLTYPNSLEEEN Lectin alpha chain: VTSYTLSDVVSLKDVVPEWVRIGFSATTGAEYAAHEVLSWSFHSELSGTSSSKQAADA", "values": [{"measurement": "Immunomodulatory effect (stimulation index class)", "setting": "avian immune cells [2]", "value": "+++ (≧10 is assigned a value of +++ (strong mitogen))"}]}
{"molecule": "PNA: peanut (Arachis hypogaea) lectin (protein, UniProt P02872 24-273, looked up) Galactose-binding lectin: AETVSFNFNSFSEGNPAINFQGDVTVLSNGNIQLTNLNKVNSVGRVLYAMPVRIWSSATGNVASFLTSFSFEMKDIKDYDPADGIIFFIAPEDTQIPAGSIGGGTLGVSDTKGAGHFVGVEFDTYSNSEYNDPPTDHVGIDVNSVDSVKTVPWNSVSGAVVKVTVIYDSSTKTLSVAVTNDNGDITTIAQVVDLKAKLPERVKFGFSASGSLGGRQIHLIRSWSFTSTLITTTRRSIDNNEKKIMNMASA", "values": [{"measurement": "Immunomodulatory effect (stimulation index class)", "setting": "avian immune cells [2]", "value": "+++ (≧10 is assigned a value of +++ (strong mitogen))"}]}
